{"source": "paper PMC6212790", "note": "Some of the results follow. At the low end of the ranking the order means little."}
{"target": "T1, GST-Rok (full length) (UniProt O34857)", "T1 sequence": "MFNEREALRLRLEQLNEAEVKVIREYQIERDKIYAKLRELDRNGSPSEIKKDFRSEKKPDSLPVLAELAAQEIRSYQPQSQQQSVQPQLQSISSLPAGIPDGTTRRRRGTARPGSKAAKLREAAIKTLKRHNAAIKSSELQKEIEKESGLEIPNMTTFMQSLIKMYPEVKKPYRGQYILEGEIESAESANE", "assay": "protein binding microarray;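 also: rank score from −0.5 (least bound) to 0.5 (best bound)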", "conditions": "Rok is a gene silencer of Bacillus subtilis; high values mean tight binding; most listed sequences are background and not binding sites; double strand, one strand shown", "units": {"binding signal": "E-score"}}
{"sequence": "AAGTACTA", "binding signal": 0.389}
{"sequence": "ATTTAGGA", "binding signal": 0.0912}
{"sequence": "AAGCTGTG", "binding signal": -0.215}
{"sequence": "TATGGTGA", "binding signal": 0.0651}
{"sequence": "ACGTTAGA", "binding signal": 0.156}
{"sequence": "ATATGTGA", "binding signal": 0.289}
{"sequence": "ATCTAATA", "binding signal": 0.313}
{"sequence": "AACGTAGT", "binding signal": 0.0637}
{"sequence": "ACGCTCTG", "binding signal": -0.166}
{"sequence": "CCCGGTGC", "binding signal": -0.425}
{"sequence": "GCAACCAC", "binding signal": 0.0207}
{"sequence": "AAAGGCGC", "binding signal": -0.244}
{"sequence": "CCGGTTAC", "binding signal": -0.0649}
{"sequence": "ATTGGTAG", "binding signal": 0.371}
{"sequence": "CCCTATTA", "binding signal": 0.139}
{"sequence": "CGAAGACC", "binding signal": -0.141}
{"sequence": "CTCACGCA", "binding signal": 0.0487}
{"sequence": "AAGGGCTA", "binding signal": -0.211}
{"sequence": "CGAAACCC", "binding signal": -0.231}
{"sequence": "CGCCTGGA", "binding signal": -0.213}
{"sequence": "AGCACATA", "binding signal": 0.0447}
{"sequence": "ACTGTCTA", "binding signal": -0.118}
{"sequence": "CGCGGAAC", "binding signal": -0.156}
{"sequence": "ATTAAGAC", "binding signal": -0.0587}
{"sequence": "CCAAAGCA", "binding signal": -0.138}
{"sequence": "GCCCGAAA", "binding signal": -0.17}
{"sequence": "AAGCCATT", "binding signal": -0.129}
{"sequence": "TCACCTAA", "binding signal": 0.082}
{"sequence": "ACGATACC", "binding signal": -0.0445}
{"sequence": "ACGCAGAC", "binding signal": -0.167}
{"sequence": "ATGTAGGG", "binding signal": 0.0923}
{"sequence": "CACCGCAG", "binding signal": -0.203}
{"sequence": "AGAAAGAA", "binding signal": 0.0909}
{"sequence": "TCAATAGA", "binding signal": 0.0845}
{"sequence": "CCGAACAC", "binding signal": -0.249}
{"sequence": "ATGACGAA", "binding signal": 0.142}
{"sequence": "CCCTGCAG", "binding signal": -0.193}
{"sequence": "CGAGCCCG", "binding signal": -0.303}
{"sequence": "AGAGGAGC", "binding signal": -0.242}
{"sequence": "ACGCGAAA", "binding signal": -0.0244}
{"sequence": "AGGGGGAA", "binding signal": -0.113}
{"sequence": "CCCCAGAC", "binding signal": -0.315}
{"sequence": "CGTCGGTC", "binding signal": -0.154}
{"sequence": "GATTTTCC", "binding signal": 0.00285}
{"sequence": "GTACTTAA", "binding signal": 0.275}
{"sequence": "AATAAAAT", "binding signal": 0.292}
{"sequence": "CGAACCCA", "binding signal": -0.0636}
{"sequence": "CCGAGGCA", "binding signal": -0.0194}
{"sequence": "AATCAACG", "binding signal": -0.00845}
{"sequence": "CAATACGC", "binding signal": -0.0523}
{"sequence": "GACCTAGA", "binding signal": -0.0649}
{"sequence": "GCCATGAA", "binding signal": -0.244}
{"sequence": "ACGCATGC", "binding signal": -0.046}
{"sequence": "CCTTGGCG", "binding signal": -0.147}
{"sequence": "CCCACACC", "binding signal": -0.0663}
{"sequence": "TCCTGTAA", "binding signal": 0.0805}
{"sequence": "ATGGAAAT", "binding signal": -0.0689}
{"sequence": "ACCAACCA", "binding signal": -0.116}
{"sequence": "CAGGAACA", "binding signal": -0.106}
{"sequence": "GAAGACAC", "binding signal": 0.118}
{"sequence": "ATATTGTC", "binding signal": 0.255}
{"sequence": "AAGCCTTG", "binding signal": -0.186}
{"sequence": "GAAGCAAA", "binding signal": -0.0122}
{"sequence": "CATACCCA", "binding signal": 0.125}
{"sequence": "CGACAAAA", "binding signal": 0.072}
{"sequence": "CTCCCTAC", "binding signal": -0.27}
{"sequence": "ACGTTGCT", "binding signal": 0.0646}
{"sequence": "AGCGCTGC", "binding signal": -0.226}
{"sequence": "CCTATAAA", "binding signal": 0.298}
{"sequence": "ATACGAGG", "binding signal": -0.0656}
{"sequence": "AAAGCTAC", "binding signal": 0.262}
{"sequence": "GAAAATAA", "binding signal": 0.145}
{"sequence": "AAAAACAC", "binding signal": 0.0452}
{"sequence": "AAGTCCCT", "binding signal": -0.0919}
{"sequence": "CTCCTTAA", "binding signal": -0.19}
{"sequence": "GAGCCCTA", "binding signal": -0.26}
{"sequence": "ACCAAGCA", "binding signal": 0.126}
{"sequence": "CCAAGTTA", "binding signal": 0.137}
{"sequence": "AATATGAA", "binding signal": 0.13}
{"sequence": "CTGATGTA", "binding signal": 0.291}
{"sequence": "CCGCTTAA", "binding signal": -0.129}
{"sequence": "TAAAACCA", "binding signal": 0.103}
{"sequence": "TCACTAAA", "binding signal": 0.166}
{"sequence": "TACAAGTA", "binding signal": 0.288}
{"sequence": "ACCGCTAC", "binding signal": 0.137}
{"sequence": "CCGCGCCA", "binding signal": -0.295}
{"sequence": "GACACGGA", "binding signal": -0.0973}
{"sequence": "GCATAAAC", "binding signal": 0.121}
{"sequence": "AGTAAATA", "binding signal": 0.387}
{"sequence": "CGTGCTAA", "binding signal": -0.0203}
{"sequence": "CCTATTAA", "binding signal": 0.0748}
{"sequence": "AGCAAGAG", "binding signal": -0.0216}
{"sequence": "CGTAGATC", "binding signal": 0.21}
{"sequence": "AGAGTACG", "binding signal": 0.0142}
{"sequence": "ACCCTCCC", "binding signal": -0.137}
{"sequence": "CCTCAGTA", "binding signal": 0.0795}
{"sequence": "TTAGCTAA", "binding signal": 0.129}
{"sequence": "CCTGATCC", "binding signal": -0.354}
{"sequence": "CTAGGCAA", "binding signal": 0.0422}
{"sequence": "ATTGATCA", "binding signal": 0.101}
{"sequence": "GATGGGTA", "binding signal": 0.0804}
{"sequence": "ACGATTGG", "binding signal": 0.0241}
{"sequence": "AGGAAGTC", "binding signal": -0.31}
{"sequence": "AAGCGTCG", "binding signal": -0.184}
{"sequence": "GATTGAAA", "binding signal": 0.0292}
{"sequence": "AGGGGCAC", "binding signal": -0.364}
{"sequence": "AGTGATCA", "binding signal": -0.0418}
{"sequence": "AGTGGTAT", "binding signal": 0.301}
{"sequence": "AATGAATC", "binding signal": 0.207}
